# From PubChem BioAssay AID1508642 (National Center for Advancing Translational Sciences (NCATS), 2021)
# The campaign covered roughly 43,000 compounds. About 200 (0.47%) were called active. Another 12% or so got no clear call; they are omitted. The call rests on the fitted dose curve; in most records, active means well fitted cell-killing curve with a large enough effect; inconclusive means small, poorly fitted or top-dose-only effect, or effect the other way; inactive means flat fitted curve, though single readings scatter. The list shows a part of the results.
# Experiment: Cell viability qHTS assay in S16 Pmp22-F2sN cells; further: nearly all actives have a fitted effect of over 65% in size
# Details: S16 Pmp22-F2sN Schwann cells viability, CellTiter-Glo, 24 h; series mostly up to 57.5 µM; activity change, negative = cytotoxicity: at the top concentration
# Outline: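 Viability was measured by CellTiter-Glo luminescence (15 min, room temperature). This followed 24 h at 37 °C of compound exposure (23 nL pin transfer) in S16 Pmp22-F2sN Schwann cells, 500-1,000 per well.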
# On the % scale 0 is the no-effect control and ±100 the full control effect.
row,Compound,"activity change, negative = cytotoxicity"
1,Cc1ccccc1-c1noc(-c2cccnc2NCc2ccco2)n1,inactive: 0.629%
2,COc1ccc(OCC(=O)NC2CC(=O)N(c3cccc(OC)c3)C2)cc1 (configuration not stated),inactive: 3.65%
3,CCOC(=O)c1c(S(=O)(=O)N2CCC(C(=O)NCc3ccc(F)cc3)CC2)c(C)n(C)c1C,inactive: -16.5%
4,Cc1cccc(N(C)C(=O)CCS(=O)(=O)c2ccc3c(c2)oc(=O)n3C)c1,inactive: -9.53%
5,COc1ccc(NC(=O)CN2CCN(Cc3ccc(F)cc3)S2(=O)=O)cc1Cl,inactive: -19%
6,COc1ccc(NC(=O)c2cc(S(=O)(=O)N3CCCCCC3)cn2C)c(OC)c1,inactive: 26.1%
7,Cc1cccc(C)c1NC(=O)NCCc1c[nH]c2ccccc12,inactive: 4%
8,CCCNC(=O)C1CCC(Cn2c(=O)c3sccc3n(Cc3ccccc3F)c2=O)CC1 (configuration not stated),inactive: -1.73%
9,COCCCn1c(=N)c(C(=O)NCc2ccco2)cc2c(=O)n3ccccc3nc21,inactive: -2.16%
10,Cc1ccc(-n2c3nc(=O)[nH]c(=O)c-3cc3c(C)nn(-c4ccccc4)c32)cc1Cl,inactive: -5.67%
11,O=C(NC1CCCCC1)c1ccc(Cn2c(SCc3ccc(F)cc3)nc3cccnc32)cc1,inactive: -8.39%
12,Cc1ccc2c(c1)-c1onc(C(=O)N3CCN(c4ccc(Cl)cc4)CC3)c1CO2,inactive: 0.998%
13,O=S(=O)(c1ccccc1)c1nnn2c1nc(NCc1ccc(F)cc1)c1sccc12,inactive: -9.28%
14,Brc1ccc(-c2nc3ccccn3c2Nc2ccc3c(c2)OCCO3)o1,inactive: -20.3%
15,CCCCN(CC)C(=O)CSc1nc2n[nH]c(C)c2c(=N)n1-c1cccc(OC)c1,inactive: -27.8%
16,Cc1oc(-c2ccc(Cl)cc2)nc1CS(=O)CC(=O)N1CCN(c2cccc(C(F)(F)F)c2)CC1 (configuration not stated),inactive: -27.8%
17,COc1ccccc1CNC(=O)CCn1nc(C)c2c(C)n(-c3ccccc3)nc2c1=O,inactive: -7.88%
18,O=C(C1COc2ccccc2O1)N1CCN(c2nc3ccc(F)cc3s2)CC1 (configuration not stated),inactive: -28.9%
19,NC(=O)C1CCN(C(=O)c2cccc(NC(=O)c3nsc4ccccc34)c2)CC1,inactive: 2.36%
20,Cc1noc(-c2ccc(-c3noc(-c4cccc(F)c4)n3)cc2)n1,inactive: -0.52%
21,CSC1=NC2(CCN(C(=O)NC3CCCCC3)CC2)N=C1c1ccc(C)cc1,inactive: -15.4%
22,COc1ccc(N2Cc3cccc(C(=O)Nc4cc(C)cc(C)c4)c3C2=O)cc1,inactive: 4.24%
23,Fc1ccc(CNc2ncnc3onc(-c4ccc(F)cc4)c23)cc1,inactive: 0.868%
24,CCc1c(CN2CCN(c3cccc(C)c3C)CC2)csc1C,inactive: 13%
25,CCc1cccc(C)c1Nc1c(-c2ccccc2)nc2sccn12,inactive: 0.865%

row,Compound,"activity change, negative = cytotoxicity"
1,O=C(C1COc2ccccc2O1)N(Cc1cccnc1)c1nc2ccc(Cl)cc2s1 (configuration not stated),inactive: 2.85%
2,Cc1ccc(C#N)c(=O)n1CC(=O)Nc1ccccc1C(F)(F)F,inactive: -2.79%
3,Cn1c(=O)c2c(nc(SCC(=O)Nc3ccccc3)n2Cc2ccccc2F)n(C)c1=O,inactive: 7.8%
4,CCN(CC)S(=O)(=O)c1nnc(NC(=O)COc2ccccc2F)s1,inactive: 3.01%
5,Nc1c(C(=O)Nc2ccc(OC(F)(F)F)cc2)nnn1Cc1ccccc1,inactive: -0.0786%
6,CCOc1ccc(CNC(=O)CSc2cc(=O)n(CC)c3ccccc23)cc1,inactive: -5.92%
7,CCOc1ccccc1NC(=O)C(CC(C)C)NS(=O)(=O)c1ccc2c(c1)oc(=O)n2C (configuration not stated),inactive: -4.8%
8,COC(=O)c1c(SC)nc2ccccc2c1OCc1ccc(Cl)cc1,inactive: -27.6%
9,Clc1ccc2c(c1)NC(c1ccncc1)=NC(c1cccs1)=N2,inactive: 1.38%
10,O=C(COCc1cc(-c2ccc3c(c2)OCO3)on1)N1CCN(c2cccc(Cl)c2)CC1,inactive: 4.12%
11,Cc1ccc(S(=O)(=O)N(Cc2nc(-c3cccc(C)c3)no2)C2CCCCC2)cc1,inactive: -29.7%
12,O=c1cc(-c2ccccc2)nc(SCc2nc(-c3ccc(Cl)cc3)no2)[nH]1,inactive: -0.547%
13,CNS(=O)(=O)c1cn(CC(=O)N2CCN(c3cccc(C)c3C)CC2)cc1S(=O)(=O)NC,inactive: 1.76%
14,CCN1CCN(C(=O)c2cnn(-c3cccc(Cl)c3)c2C2CCN(C(=O)OC(C)(C)C)CC2)CC1,inactive: 13.6%
15,Cc1ccc2oc(-c3ccc(C)c(NC(=O)c4ccc(N5CCC(C)CC5)c([N+](=O)[O-])c4)c3)nc2c1,inactive: 1.79%
16,O=C(CCCN1C(=O)C(c2ccccc2)Oc2cccnc21)Nc1ccccc1C(F)(F)F (configuration not stated),inactive: 19.4%
17,CCCn1c(CNC(=O)c2ccc(F)cc2)nc2ccccc21,inactive: -2.11%
18,CC(C)CN(CCCNC(=O)CN1N=C(c2ccc(Cl)cc2)CCC1=O)CC(C)C,inactive: 18.6%
19,O=c1c2cc3c(cc2n(Cc2ccc(F)cc2)c(=O)n1Cc1nc(-c2ccccc2)no1)OCO3,inactive: 13.7%
20,Cc1cccc(NC(=O)c2ccc3snnc3c2)c1C,inactive: 1.76%
21,CCOC(=O)CNC(=O)Nc1cc(C(=O)NCc2ccccc2OC)ccc1N1CCCC1,inactive: -0.786%
22,Cc1ccccc1C(=O)NC1(C(F)(F)F)N=C(c2ccccc2)N(C2CCCCC2)C1=O (configuration not stated),inactive: -2.61%
23,CCOc1ccccc1CNC(=O)c1c(C)oc2ncnc(N3CCOCC3)c12,inactive: 5.65%
24,CCOc1ccc(NC(=O)CSc2ccc(-c3sc(-c4ccccc4)nc3C)nn2)cc1,inactive: 2.7%
25,CCC(Oc1ccccc1F)C(=O)N1CCC(c2nc3ccccc3s2)CC1 (configuration not stated),inactive: 1.54%

row,Compound,"activity change, negative = cytotoxicity"
1,CCOc1ccc(NC(=O)C2CCCN(c3ccc(Sc4ccc(C)cc4)nn3)C2)cc1 (configuration not stated),inactive: 17.8%
2,COC(=O)C(CCSC)NC(=O)c1cc2c(n(-c3ccc(Cl)cc3)c1=O)CCCC2=O (configuration not stated),inactive: 19.8%
3,O=C(NC(=O)c1ccccc1)Nc1ccc(-c2cc(C(F)(F)F)nn2-c2ccccc2)cc1,inactive: 1.07%
4,COc1ccc(Cl)cc1NC(=O)C1CCCN(c2ncnc3onc(C)c23)C1 (configuration not stated),inactive: -3.14%
5,COc1ccc(Cl)cc1NC(=O)c1cn(C2CCCCC2)c(=O)c2c1c1ccccc1n2C,inactive: -2.19%
6,CCOc1ccc(Nc2nc3cc(Cl)c(Cl)cc3nc2-n2nc(C)cc2C)cc1,inactive: 4.48%
7,Cc1c(C(=O)N(Cc2ccc(N(C)C)cc2)CC2CCCO2)oc2ccc(Cl)cc12 (configuration not stated),inactive: -0.463%
8,COc1ccc(N2CCN(c3csc4ccc(Cl)cc4c3=O)CC2)cc1,inactive: 6.6%
9,COc1ccccc1CCNC(=O)C1CCN(c2nnc(-n3cccc3CNc3ccc(C)cc3)s2)CC1,inactive: -20%
10,CCc1ccccc1Nc1nn2c(=O)c3ccc(C(=O)NCc4ccccc4OC)cc3nc2s1,inactive: -4.47%
11,CCOc1ccc(Nc2ncnc3c2nc2n3CCCC2)cc1,inactive: -2.5%
12,COc1ccccc1Cn1cc(C(=O)c2ccc(C)cc2)c(=O)c2cc(C)ccc21,inactive: 2.78%
13,Cc1ccc(-n2nc(CO)c(C(=O)NCCCc3ccccc3)n2)cc1C,inactive: -3.66%
14,COc1ccc(CNC(=O)c2cc(-c3ccc(C)cc3)nc3n[nH]c(-c4ccc(Br)cc4)c23)cc1,inactive: 3.62%
15,Cc1ccc(C)c(S(=O)(=O)c2nnn3c2nc(NC(C)C)c2sccc23)c1,inactive: -29.7%
16,NS(=O)(=O)c1ccc(NC(=O)CN2C(=O)COc3ccc(Cl)cc32)cc1,inactive: -19.8%
17,CSc1ccc(CCNC(=O)c2ccc(-c3nc(COc4ccc(C)cc4)c(C)o3)cc2)cc1,inactive: 2.74%
18,COc1ccc(Br)cc1CNC(=O)CCSCc1ccc(C)cc1,inactive: -5.11%
19,Cc1ccc(S(=O)(=O)N2CCN(Cc3nc4ccc(C)cc4o3)CC2)cc1,inactive: -17.8%
20,O=C(CS(=O)(=O)c1cccc2nsnc12)N1CCN(c2cccc(C(F)(F)F)c2)CC1,inactive: -9.72%
21,O=C(Cn1cc(S(=O)(=O)c2ccccc2)c(=O)c2cc3c(cc21)OCO3)Nc1ccc(Cl)cc1,inactive: 8.05%
22,CCNc1cc(N2CCN(C3CCCCC3)CC2)c2noc3c2c1C(=O)c1ccccc1-3,inactive: -4.21%
23,O=C(O)Cc1sc(Nc2ccccc2)nc1-c1ccccc1,inactive: -9.43%
24,COc1ccc(S(=O)(=O)NCCS(=O)(=O)N2CCN(c3ccccc3)CC2)cc1C,inactive: 6.36%
25,O=C(O)Cc1ccc(NC2(c3ccccc3)C(=O)c3ccccc3C2=O)cc1,inactive: 4.34%

row,Compound,"activity change, negative = cytotoxicity"
1,COC(=O)c1ccccc1NC(=O)C1=C(C)C(=O)OC12CCCCCC2,inactive: -16.7%
2,COc1ccc(C(=O)Nc2ccccc2SCc2cc(=O)c3cccc(C)c3[nH]2)cc1,inactive: 18.3%
3,CC(Oc1ccc(Br)cc1)C(=O)Nc1ncn[nH]1 (configuration not stated),inactive: -2.51%
4,COc1ccc(N2CCN(Cc3cccn3-c3nnc(N4CCN(C5CCCCC5)CC4)s3)CC2)cc1,inactive: -3.59%
5,Cc1nc(SC(C)C(=O)Nc2ccccc2Cl)cc(-c2ccccc2)n1 (configuration not stated),inactive: 1.96%
6,CCn1cc(C(=O)N2CCN(c3cc(C)ccc3C)CC2)c(=O)c2cc(S(=O)(=O)N3CCCCC3)ccc21,inactive: 3.56%
7,Cc1ccc([N+](=O)[O-])cc1S(=O)(=O)N1CCn2cccc2C1c1ccccc1 (configuration not stated),inactive: -7.74%
8,COc1ccc(NC(=O)CCc2nnc3n(Cc4ccccc4Cl)c(=O)c4ccccc4n23)cc1,inactive: 7.71%
9,Cc1ccc2nc(-c3ccc(Cl)c(NC(=O)COc4ccc(C(C)C)cc4)c3)oc2c1,inactive: 1.62%
10,Cc1ccc(C)c(NC(=O)C2CCCN(S(=O)(=O)c3cn(C)cn3)C2)c1 (configuration not stated),inactive: -2.84%
11,Cc1ccc(-c2cc(C(=O)N(Cc3ccc(C(C)(C)C)cc3)Cc3ccco3)no2)cc1,inactive: 23.6%
12,COc1ccc(NC(=O)c2ccco2)cc1NC(=O)COc1ccc(Cl)c(C)c1,inactive: -6.65%
13,Cc1ccc(NC(=O)N2CC3CCCN3c3ccccc32)c(C)c1 (configuration not stated),inactive: -14.4%
14,Fc1ccc(-n2ncc3c(N4CCCCCC4)ncnc32)cc1,inactive: 2.11%
15,CCOc1ccc(C(=O)Nc2c(C(=O)N3CCN(c4ccccc4F)CC3)oc3ccccc23)cc1,inactive: -7.78%
16,Cc1ccc(NS(=O)(=O)c2cc3[nH]c(=O)c(=O)[nH]c3cc2C)cc1Cl,inactive: 15.4%
17,Cc1cc(N2CCN(c3cccc(C(F)(F)F)c3)CC2)n2nc(-c3ccccc3)nc2n1,inactive: -3.29%
18,CC(C)C(=O)NCC1(N(C)C)CCCCC1,inactive: 1.38%
19,CCc1nonc1NC(=O)c1oc2ccc(C)cc2c1C,inactive: 4.75%
20,CCOc1ccc(N2C(=O)c3n[nH]c(-c4cccs4)c3C2c2cccc(F)c2)cc1 (configuration not stated),inactive: 0.518%
21,CCOC(=O)c1ccc(-n2c(-c3ccc(C)cc3)c(C)n3c4c(=O)n(C)c(=O)n(C)c4nc23)cc1,inactive: 2.27%
22,COc1ccc(-c2cc(-c3ccc4c(c3)NC(=O)CO4)nc3c2COc2ccc(F)cc2-3)cc1,inactive: 2.94%
